Among all 360,000 compounds or so, about 7,500 (2.1%) were called active. Inconclusive results, whose numbers are uncertain, are shown with a selection of clear calls. The call rests on the fitted dose curve; in most records, active means well fitted cell-killing curve with a large enough effect; inconclusive means small, poorly fitted or top-dose-only effect, or effect the other way, or another doubt; inactive means no such curve, though single readings can be large or run the other way. Potencies of inconclusive entries are left out as doubtful fits.
assay: qHTS for induction of synthetic lethality in tumor cells producing 2HG: qHTS for the HT-1080-IDH1KD cell line; conditions: HT-1080 IDH1 knockdown viability, ATP luminescence, 48 h; activity, negative = toxicity: at 46.1 µM (top of the series) unless noted;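 on activity, negative = toxicity: 0% = DMSO wells and -100% = cell-free medium wells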
How it was run: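 Viability of IDH1-knockdown HT-1080 fibrosarcoma cells was assessed by CellTiter-Glo after 48 h at 37 °C with titrated compound; concentration-effect curves were classified by fit quality and response size.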
Potency means the concentration at half of the fitted maximal effect; tags describe the fitted curve by direction and shape.

| SMILES | Potency | activity, negative = toxicity |
| --- | --- | --- |
| COc1cc(CN2CCN(C(c3ccccc3)c3ccccc3)CC2)cc(OC)c1OC | inconclusive [cytotoxic, single point] |  |
| O=C(CNC(=O)c1cccc(S(=O)(=O)N2CCc3ccccc32)c1)Nc1ccc(F)c(F)c1F | inconclusive [cytotoxic, partial curve] |  |
| O=C(NCc1ccc2c(c1)OCO2)c1cc(F)c(F)cc1Cl | inactive |  |
| COc1ccc(OC)c(-c2cc(C(=O)NCc3cccs3)no2)c1 | inconclusive [cytotoxic, single point] |  |
| COCC(C)n1c(C)cc(C(=O)CSc2nnc(N)s2)c1C (stereo not drawn) | inactive |  |
| Cc1cc(S(=O)(=O)N2CCOCC2)c(C)s1 | inactive |  |
| CCSC(=O)N1c2ccc(OC)cc2C=CC1C#N (stereo not drawn) | inconclusive [cytotoxic, full curve] |  |
| Cc1cc(N2C(=O)C(O)=C(C(=O)c3cc4ccccc4o3)C2c2cccs2)no1 (stereo not drawn) | inconclusive [cytotoxic, single point] |  |
| Cc1[nH]c(=O)c(C(=O)/C=C/c2ccccc2F)c2c1CCCC2 | active: 7.94 µM |  |
| Cc1cc(S(=O)(=O)NC2CCN(Cc3ccccc3)CC2)c(C)cc1Cl | active: 20.6 µM |  |
| Nc1nc(Nc2cccc(F)c2)nc2ccccc12 | inconclusive [cytotoxic, single point] |  |
| CC(C)C(=O)Nc1cccc2nsnc12 | inconclusive [cytotoxic, single point] |  |
| Cc1ccc(NC(=O)c2ccc(OCc3c(C)noc3C)cc2)cc1C | inactive |  |
| CCC(C)(C)n1nnnc1C(c1ccncc1)N1CCN(c2cccc(OC)c2)CC1 (stereo not drawn) | inconclusive [cytotoxic, single point] |  |
| COC(=O)Nc1nc2ccc(SC(C)C)cc2[nH]1 | active: 1.3 µM |  |
| O=C(CSc1ccc2ccccc2c1)NCCc1ccc(O)c(O)c1 | inconclusive [cytotoxic, single point] |  |
| CCOc1ccc(N/C(N)=N/c2nc(CSc3nnc(C)s3)cc(=O)[nH]2)cc1 | active: 0.92 µM |  |
| CC(=O)Oc1c(I)cc(I)cc1C(=O)Nc1ccc(Cl)cc1 | active: 20.6 µM |  |
| CCCn1c2ccc(C)cc2c2nnc(SCCN3CCOCC3)nc21 | inconclusive [cytotoxic, partial curve] |  |
| CC(C)(C)C1CCc2c(sc(NC(=O)c3cccs3)c2C(N)=O)C1 (stereo not drawn) | inactive |  |
| Oc1cccc(/C=N/NC(=S)Nc2cccnc2)c1O | inconclusive [cytotoxic, full curve] |  |
| CC(C)C[C@H]1CN([C@@H](CC(C)C)CN2CCCC2CN2C(=S)NC[C@@H]2Cc2ccc(O)cc2)C(=S)N1CC1CCCCC1 (stereo partly drawn) | inactive |  |
| COCCNC(=O)C1CCCN(C(=O)c2ccc(SC(F)(F)F)cc2)CC1 (stereo not drawn) | inactive |  |
| COc1cccc(CN(C(=O)Cc2c[nH]c3ccccc23)C(C(=O)NC2CCCCC2)c2ccc(C)o2)c1 (stereo not drawn) | inconclusive [cytotoxic, single point] |  |
| Cc1ccc(Cl)c(Nc2ccccc2C(=O)O)c1Cl | inconclusive [cytotoxic, single point] |  |

| SMILES | Potency | activity, negative = toxicity |
| --- | --- | --- |
| COc1cc(OC)cc(C(=O)NNC(=O)c2ccccn2)c1 | inconclusive [cytotoxic, full curve] |  |
| COc1cccc(NC(=O)c2ccc(-c3ccc([N+](=O)[O-])cc3)o2)c1 | inactive |  |
| CC1(C(=O)NS(=O)(=O)c2cccc(Cl)c2)CCN1C(=O)C/C=C/c1ccccc1 (stereo not drawn) | inconclusive [rising, single point] |  |
| CCN(CC)c1ccc(NC(=S)NC(=O)c2ccco2)cc1 | inconclusive [cytotoxic, partial curve, poor fit] |  |
| CCN1/C(=C/C=C/c2oc3ccc(-c4ccccc4)cc3[n+]2CC)Oc2ccc(-c3ccccc3)cc21 | active: 0.92 µM |  |
| COc1ccc(-c2cc(NC=O)c3ncc(-c4ccc(OC)c(OC)c4)n3c2)c(OC)c1 | active: 0.082 µM |  |
| COc1cccc(/C=N/NC(=O)c2c(C)nc3ccc(Br)cn23)c1O | inconclusive [cytotoxic, full curve] |  |
| COC(=O)c1c(NC(=O)/C=C/C(=O)O)sc(C)c1-c1ccc(C(C)C)cc1 | inconclusive [cytotoxic, single point] |  |
| O=C(CSc1nc(-c2ccccc2)cs1)NCc1ccco1 | inactive |  |
| Cc1ccc(C(=O)N2CCCCC2)cc1NC1=C(Cl)C(=O)N(Cc2ccccc2)C1=O | inconclusive [cytotoxic, single point] |  |
| CN(CC(=O)Nc1ccccc1C(=O)N1CCCC1)S(=O)(=O)c1ccc(Cl)cc1 | inactive |  |
| Cc1ccccc1NNC(=O)C(=O)NNc1ccccc1C | active: 18.4 µM |  |
| O=C(NC1CCCC1)C(c1ccc(Cl)cc1)N(Cc1ccc(F)cc1)C(=O)CCl (stereo not drawn) | inactive |  |
| Cc1cc(C)c(C(=O)Cn2nc(C)c([N+](=O)[O-])c2C)cc1C |  | inconclusive: 15.7% |
| COc1cc(CNc2ccccc2SC)cc(OC)c1OC | inconclusive [cytotoxic, single point] |  |
| COc1ccc(-c2nc3c4ccccc4ccn3c2Cc2cccc(F)c2)cc1OC | inconclusive [cytotoxic, partial curve] |  |
| CCN(C[C@H]1N[C@@](CC)(C(=O)OC)[C@H]2C(=O)N(Cc3ccccc3)C(=O)[C@@H]12)S(=O)(=O)c1ccc(-c2ccccc2)cc1 | inactive |  |
| CCc1cc(C)cc(OCCOc2ccccc2/C=N/NC(C)=O)c1 | inconclusive [cytotoxic, single point] |  |
| COc1ccccc1NS(=O)(=O)c1ccc(N/N=C/c2ccccc2OCC(=O)O)c([N+](=O)[O-])c1 | inactive |  |
| COc1ccc(/C=C/C(=O)NCc2cnn(C)c2C)cc1COc1ccc(Br)cc1 | inconclusive [cytotoxic, single point] |  |
| CCOc1ccc(NCCC(=O)c2ccc3c(c2)OCO3)cc1 | inconclusive [cytotoxic, single point] |  |
| O=C(C(=O)c1cc(Br)ccc1O)c1cc(Br)ccc1O | active: 2.91 µM |  |
| C[C@H]1C[C@H]2[C@@H]3CCC4=CC(=O)C=C[C@]4(C)[C@@]3(F)[C@@H](O)C[C@]2(C)[C@@]1(O)C(=O)CO | inactive |  |
| COC(=O)c1c(NC(=O)CCl)sc(C(=O)N2CCOCC2)c1C | active: 18.4 µM |  |
| Cc1ccccc1NC(=O)CSc1cn[nH]n1 | inactive |  |

| SMILES | Potency | activity, negative = toxicity |
| --- | --- | --- |
| CC(C)(C)c1cc(Cl)c(O)c(NC(=S)NC(=O)c2cccnc2)c1 | inconclusive [cytotoxic, partial curve] |  |
| CN(C(=O)Nc1ccc(Cl)cc1Cl)[C@H]1c2cc(Br)ccc2OC[C@H]1CO | inconclusive [cytotoxic, single point] |  |
| N#CC1=C(N)Oc2c(ccc3cccnc23)C1c1ccccc1 (stereo not drawn) | inconclusive [cytotoxic, full curve] |  |
| CC(C)(C)c1ccc(OCCC(=O)OCC(=O)NC(=O)NC2CCCC2)cc1 | inconclusive [cytotoxic, single point] |  |
| COc1ccccc1C(=O)N/N=C(\C)CC(=O)Nc1ccc2c(c1)OCCO2 | inactive |  |
| O=C(CSc1ncn[nH]1)c1ccccc1 | inconclusive [cytotoxic, single point] |  |
| CC(=O)Nc1ccc(-c2csc(Nc3cc(C)ccn3)n2)cc1 | inconclusive [cytotoxic, partial curve] |  |
| Cc1[nH]c(=O)[nH]c(=O)c1N1CCOCC1 | inactive |  |
| CCc1cccc(NC(=O)C2CCCN(c3ncnc4c3nc3n4CCCCC3)C2)c1 (stereo not drawn) | inconclusive [cytotoxic, single point] |  |
| O=C(CSc1ccc(S(=O)(=O)N2CCOCC2)cn1)Nc1ccc(OC(F)F)cc1 | inactive |  |
| CCCCn1c(CCn2nc(C)c(Br)c2C)n[nH]c1=S | inconclusive [cytotoxic, single point] |  |
| Nc1nonc1-n1nnc(C(=O)N/N=C/c2ccc(F)cc2)c1-c1ccc2c(c1)OCO2 | inconclusive [cytotoxic, partial curve] |  |
| C=CCn1c(O)c(C2=c3ccccc3=NC2=O)sc1=Nc1ccc(O)cc1 | inconclusive [cytotoxic, single point] |  |
| CCC(=NCCc1c(C)[nH]c2ccc(OC(F)(F)F)cc12)C1=C(O)CC(c2ccccc2)CC1=O (stereo not drawn) | active: 5.8 µM |  |
| CN=C1c2c(-c3ccccc3)c3cc(OC)ccc3n2CCN1C | inconclusive [cytotoxic, partial curve] |  |
| Oc1c(Br)cc(Br)cc1C=NCc1ccc(F)cc1 | inconclusive [cytotoxic, single point] |  |
| O=S(=O)(/N=C/c1c(O)ccc2ccccc12)c1ccccc1 | inconclusive [cytotoxic, single point] |  |
| O=C(CN1C(=O)c2ccccc2S1(=O)=O)NC1CCCC1 | inactive |  |
| O=C1ON=C(c2ccc(Cl)cc2)/C1=C/c1ccc(O)cc1 | inconclusive [cytotoxic, single point] |  |
| COCCN(C(=O)c1cccc(N2C(=O)CCC2=O)c1)c1nc(-c2ccc([N+](=O)[O-])cc2)cs1 | inactive |  |
| COc1ccc(OC)c(NC(=O)CSc2nccn2Cc2ccco2)c1 | inactive |  |
| CC(C)Cc1ccc(C(C)C(N)=Nc2ccc(O)cc2)cc1 (stereo not drawn) | active: 20.6 µM |  |
| CC1(C(=O)NCCC(F)(F)F)Cc2c(-c3ccccc3)ccnc2O1 (stereo not drawn) | inconclusive [cytotoxic, single point] |  |
